This is an account of results in paper PMC6274866, “The 2β Splice Variation Alters the Structure and Function of the Stromal Interaction Molecule Coiled-Coil Domains” (International Journal of Molecular Sciences, 2018).

Data set [1] deals with the molecule itself. The data set is described as follows: SEC-MALS; 1 mg/mL protein injected on Superdex 200 Increase 10/300 GL at 10 °C; 20 mM TRIS, 300 mM NaCl, 1 mM DTT, pH 8.0; without CaCl2; stoichiometric ratio = MALS molecular weight / theoretical monomer mass. On the technique in general: In gel filtration, larger molecules generally elute earlier.
Data set [2] concerns the molecule itself. The data set is described as follows: SEC-MALS; 1 mg/mL protein injected on Superdex 200 Increase 10/300 GL at 10 °C; 20 mM TRIS, 300 mM NaCl, 1 mM DTT, pH 8.0; with 25 mM CaCl2; stoichiometric ratio = MALS molecular weight / theoretical monomer mass.

B1: human STIM1-OASF (Orai-activating STIM fragment of stromal interaction molecule-1, […]) (domain or fragment)
chain: not shown
notes: Expressed from pET-28a; A few vector residues probably remain after thrombin cleavage (surmise); source: E. coli BL21 (DE3), purified under denaturing conditions (guanidine-HCl, nickel-NTA), renatured, thrombin-cleaved, SEC
In general, stoichiometry N refers to the number of molecules, sites or subunits per partner or assembly. Turning to B1, the results for the “stoichiometry N” value in data set [1] and in data set [2] were 2.18 and 2, respectively.

B2: human STIM2-OASF (Orai-activating STIM fragment of stromal interaction molecule-2, […]) (domain or fragment)
chain: not shown
notes: the methods print […]; Cloned into pET-28a; C-terminal limit printed as 496 in the results and 495 in the methods; 496 fits the […] range printed for the 2β form (8 residues longer); A few vector residues probably remain after thrombin cleavage (surmise); source: E. coli BL21 (DE3), purified under denaturing conditions (guanidine-HCl, nickel-NTA), renatured, thrombin-cleaved, SEC
Take B2: the entries for the “stoichiometry N” value in data set [1] and in data set [2] were 1.98 and 1.99, respectively.
